# Measured values taken from article PMC4336329 (PLoS ONE, 2015).
# Among all 310,000 compounds or so, about 14,000 (4.5%) showed an effect of 50% or more. The effect is printed as a negative number. The list shows a part of the results.
# Molecular target: human ether-à-go-go-related gene (hERG) potassium channel (human, UniProt Q12809)
# Test: primary screen, population patch clamp on CHO cells stably expressing hERG
# 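Further: peak tail current of the secondary pulse compared with the same well before compound.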
# Chain of human ether-à-go-go-related gene (hERG) potassium channel (Q12809 whole entry, looked up): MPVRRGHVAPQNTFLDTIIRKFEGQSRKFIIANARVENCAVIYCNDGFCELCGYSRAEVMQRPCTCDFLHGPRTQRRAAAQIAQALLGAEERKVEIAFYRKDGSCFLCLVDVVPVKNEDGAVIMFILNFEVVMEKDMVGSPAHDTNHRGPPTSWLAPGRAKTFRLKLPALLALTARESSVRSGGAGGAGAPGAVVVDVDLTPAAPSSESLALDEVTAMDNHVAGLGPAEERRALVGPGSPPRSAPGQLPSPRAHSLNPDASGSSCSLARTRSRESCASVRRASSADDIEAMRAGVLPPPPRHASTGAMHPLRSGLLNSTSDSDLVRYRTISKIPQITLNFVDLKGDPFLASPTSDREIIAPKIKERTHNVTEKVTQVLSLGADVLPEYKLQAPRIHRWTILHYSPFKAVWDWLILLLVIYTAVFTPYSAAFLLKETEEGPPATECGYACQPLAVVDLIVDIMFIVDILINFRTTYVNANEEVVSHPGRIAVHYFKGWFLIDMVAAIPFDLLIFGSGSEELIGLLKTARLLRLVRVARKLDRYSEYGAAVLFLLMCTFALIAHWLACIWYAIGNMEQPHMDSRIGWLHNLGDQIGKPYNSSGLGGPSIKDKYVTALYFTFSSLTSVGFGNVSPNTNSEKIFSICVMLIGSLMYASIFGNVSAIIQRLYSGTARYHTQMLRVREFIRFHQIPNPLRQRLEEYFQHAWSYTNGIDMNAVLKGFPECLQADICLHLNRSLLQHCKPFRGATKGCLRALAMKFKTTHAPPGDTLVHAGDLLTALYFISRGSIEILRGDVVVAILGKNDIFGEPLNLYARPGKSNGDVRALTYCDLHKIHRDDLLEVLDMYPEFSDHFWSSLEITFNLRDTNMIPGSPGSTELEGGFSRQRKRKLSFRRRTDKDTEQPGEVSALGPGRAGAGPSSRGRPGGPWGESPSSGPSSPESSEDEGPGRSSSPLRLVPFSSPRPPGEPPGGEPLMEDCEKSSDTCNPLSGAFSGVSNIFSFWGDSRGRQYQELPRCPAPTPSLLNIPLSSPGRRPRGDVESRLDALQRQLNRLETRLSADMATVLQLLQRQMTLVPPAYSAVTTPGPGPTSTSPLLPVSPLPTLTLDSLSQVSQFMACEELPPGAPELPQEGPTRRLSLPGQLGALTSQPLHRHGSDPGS
row,Structure (SMILES),"hERG current change (%, negative = inhibition) at 10uM [%]"
1,COC(=O)NC1CSCC1OC(=O)CN1C(=O)c2ccccc2C1=O (centres unmarked),-5.99
2,CCOc1ccc(-c2nc(C#N)c(NCC3CCCO3)o2)cc1 (centres unmarked),-21.6
3,Cc1cccc(N(Cc2ccccc2)C(=O)c2cc(S(=O)(=O)N3CCOCC3)ccc2Cl)c1,-13.3
4,CCn1c(SCC(=O)N2CCCC2)nc2c1c(=O)n(C)c(=O)n2C,-6.79
5,Cc1nc(N)sc1-c1nnc(SCC(=O)Nc2ccccc2C(F)(F)F)n1C,15.1
6,Cc1cc(C)n(CC(=O)NNC(=O)COc2ccc(F)cc2Br)n1,15.6
7,CCOC(=O)C1CCN(CCC(=O)Nc2ccc(Cl)cc2)CC1,-62.4
8,O=C1[C@@H]2[C@@H]3C[C@@H]([C@H]4ON=C(c5ccc(Cl)cc5)[C@@H]34)[C@@H]2C(=O)N1C1CCCCC1,-24.6
9,CCOC(=O)CCCNC(=O)c1cncc(Br)c1,-0.786
10,Cc1cccc(C)c1NC(=S)NCCSc1ccc(Cl)cc1,14.7
11,O=C(Nc1cccnc1)c1cc(S(=O)(=O)N2CCCCC2)c(Cl)cc1Cl,-10.6
12,CC1CC(C)CN(C(=O)CSc2nnc(N)s2)C1 (centres unmarked),11.4
13,CCSc1nc2ccccc2n1Cc1nc(N)nc(N(C)C)n1,-1.89
14,Cl.OC(COc1ccc2c(c1)CCC2)CN1CCN(c2cccc(Cl)c2)CC1 (centres unmarked),-10.4
15,Cc1c(NC(=O)c2cccc(NC(=O)Cc3c(F)cccc3Cl)c2)c(=O)n(-c2ccccc2)n1C,-9.81
16,Cn1c(N)c(S(=O)(=O)NCc2ccccc2Cl)c(=O)n(C)c1=O,2.82
17,O=C(NNc1ccc(Cl)cc1)c1cccs1,7.21
18,O=C(C[n+]1cc(-c2ccccc2)n2c1CCCCC2)c1ccc(Br)cc1.[Br-],-52.7
19,O=c1cc([O-])nc(SCc2ccccc2)n1-c1ccc(F)cc1.[K+],4.95
20,Cc1ccccc1C(=O)Nc1ccccc1-c1nnn(CC(=O)Nc2ccc3c(c2)OCCO3)n1,-2.51
21,C/C(=N\NC(=O)Cc1cc(=O)[nH][nH]1)c1cccc([N+](=O)[O-])c1,21.6
22,c1ccc(CCNc2nc(-c3ccncc3)nc3ccccc23)cc1,3.71

row,Structure (SMILES),"hERG current change (%, negative = inhibition) at 10uM [%]"
1,COc1ccc(-c2nn(-c3ccccc3)cc2CNC(=O)c2cccc([N+](=O)[O-])c2)cc1,13.9
2,COc1ccccc1-c1ccc(SCc2cccc(F)c2)nn1,18
3,CCN(CC)CCN1C(=O)C(=O)/C(=C(/O)c2c(C)[nH]c(C(=O)OC)c2C)C1c1ccc(C)o1 (centres unmarked),8.52
4,Cc1ccc(C2(C(F)(F)F)NC(=O)N3CCCN=C3S2)cc1 (centres unmarked),16.5
5,Cc1ccc(S(=O)(=O)C(C)C(=O)NCCS(=O)(=O)c2ccc(Cl)cc2)cc1 (centres unmarked),-26.8
6,CCCCn1nc(C(=O)N2CCc3ccccc32)c2ccccc2c1=O,-28.4
7,CC(C)N(CCCNC(=O)Cn1ncc2c([nH]c3ccccc32)c1=O)Cc1ccccc1,-48.1
8,CCCc1cc(=O)[nH]c(SCC(=O)Nc2cccc(S(=O)(=O)N3CCCCC3)c2)n1,-22.7
9,COc1ccc(NC(=S)Nc2ccc(S(=O)(=O)N3CCOCC3)cc2)c(OC)c1,4.58
10,CCN(CC)c1ccc(-c2n[nH]c(=S)n2-c2ccccc2)cc1,20.7
11,CCOC(=O)c1cc(-c2ccccc2)n(CC(=O)Nc2ccc(OCC)cc2)c1C,14
12,c1ccc(C2CCC(N3CCC(N4CCCCC4)CC3)CC2)cc1 (centres unmarked),10.8
13,CC(=O)Nc1ccc(S(=O)(=O)NC(C)c2nc(-c3ccccc3)no2)cc1 (centres unmarked),22.4
14,COc1ccc(NC(C)=O)cc1CNC(=O)COc1ccccc1C(=O)Nc1cccc(C)c1C,-27.5
15,N#Cc1c(C#N)c(-c2ccccc2)n(-c2ccc(C(=O)O)cc2)c1N,9.1
16,CNC(=S)/N=C/NOCc1c(Cl)cccc1Cl,-19.5
17,O=C(COc1ccccc1)NCC(=O)N/N=C/c1ccccc1,12.4
18,COc1ccc(CN(C(=O)c2cnccn2)C(C(=O)NC(C)(C)C)c2cc(OC)c(OC)c(OC)c2)cc1 (centres unmarked),1.58
19,Cc1ccc(S(=O)(=O)N2CC(O)C2)cc1,26.2
20,Cn1c(SCc2nc(-c3ccc(Cl)cc3)no2)nnc1-c1ccccc1,-22.5
21,O=C1CC(N2CCN(c3ccc(F)cc3)CC2)C(=O)N1c1ccc(F)cc1 (centres unmarked),1.07
22,COC(CNC(=O)c1ccc2c(c1)nc(C)n2-c1ccc(F)c(F)c1)OC,-26.8

row,Structure (SMILES),"hERG current change (%, negative = inhibition) at 10uM [%]"
1,CCOC(=O)Cc1csc(NS(=O)(=O)c2ccc(NC(C)=O)cc2)n1,25.9
2,C=CCNC(=S)NNC(=O)c1cccc(Br)c1,16.6
3,CN(C)CC[C@@H](c1ccc(Br)cc1)c1ccccn1.O=C(O)/C=C\C(=O)O,-30
4,O=[N+]([O-])c1ccc(SCCc2ccncc2)cc1,-63.7
5,COc1ccc(C)cc1NC(=O)C(OC(=O)CNC(=O)c1ccc(Br)cc1)c1ccccc1 (centres unmarked),29.1
6,CCc1ccc(CNC(=O)CCc2cn(C)c3ccccc23)cc1,-0.115
7,Cc1ccnc(NC(=O)CNC(=O)c2cccs2)c1,20.7
8,C#CC1(O)CC(C)N(C)C(C)C1.Cl (centres unmarked),5.47
9,Cc1ccc(C)c(NC(=O)c2nnn(Cc3ccccc3C)c2N)c1,5.37
10,Cc1ccc(-n2c3c(cc(C(=O)NCc4ccco4)c2=O)C(=O)CC(C)(C)C3)cc1,-6.38
11,Cc1ccc2c(c1)Oc1ccc(NC(=O)CCl)cc1C(=O)N2,3.51
12,NS(=O)(=O)c1ccc(N=Nc2c(O)c(C(=O)O)cc3ccccc23)cc1,17
13,CC1=C(C(=O)OCc2ccccc2)C(c2ccc(Br)cc2)NC(=O)N1CCCC(=O)O (centres unmarked),10.3
14,O=C(Nc1cccc(O)c1)c1ccc2c(c1)C(=O)N(Cc1ccco1)C2=O,-5.31
15,Cc1ccc(S(=O)(=O)N(C)C)cc1NC(=O)C(C)Sc1ccccc1 (centres unmarked),-6.74
16,CC(CCc1ccco1)NC(=O)Cn1nc(Cc2ccncc2)c2ccccc2c1=O (centres unmarked),-46.6
17,Cc1ccc(NC(=O)[C@H](Cc2ccccc2)NC(=O)C2CCNCC2)cc1,5.64
18,COCC(=O)OCC(=O)N1N=C(c2ccc(Cl)cc2)CC1c1ccco1 (centres unmarked),-28.1
19,N#Cc1nc(Nc2cc(F)cc(F)c2)c2ncn(CC(F)F)c2n1,8.18
20,CC(=O)N1CCN(S(=O)(=O)c2ccc(F)c(Cl)c2)CC1,-0.621
21,Cc1cc(C(=O)Nc2ccc(F)c(Cl)c2)on1,4.42
22,COc1ccc(Cl)cc1NC(=O)Nn1cnnc1,-0.4

row,Structure (SMILES),"hERG current change (%, negative = inhibition) at 10uM [%]"
1,COc1cc(/C=C2\C(=O)N(CCC#N)N=C2C)ccc1OCC(=O)Nc1ccccc1,-7.3
2,C=CCOc1ccc(CN(C)CC(=O)N(CC(C)C)c2c(N)n(CC(C)C)c(=O)[nH]c2=O)cc1,13
3,O=C(Nc1ccccc1)N(Cc1ccccc1)CC(O)C(F)(F)F (centres unmarked),17.6
4,Cc1noc(C)c1S(=O)(=O)N(CC(=O)NCCc1ccccc1)c1ccc(C(C)C)cc1,13.3
5,CCOC(=O)C(C)N1N=C(/C=C/c2ccc(OC)cc2)CCC1=O (centres unmarked),1.23
6,CCCCN(C(=O)C(C)Oc1cccc(Cl)c1)c1c(N)n(CCC)c(=O)[nH]c1=O (centres unmarked),-13
7,O=C(CSc1nc2ccccc2c(=O)n1-c1cccc(C(F)(F)F)c1)NC1CC1,-18.5
8,NC(=O)c1ccc(NC(=O)c2ccccc2S(=O)(=O)c2ccccc2[N+](=O)[O-])cc1,-1.49
9,C/C(=N\NC(=O)CNC(=O)c1ccc2c(c1)OCCO2)c1ccco1,10.7
10,CCN(C(=O)COC(=O)c1ccc(S(=O)(=O)N2CCCc3ccccc32)cc1)C1CCS(=O)(=O)C1 (centres unmarked),3.57
11,COc1cc(/C=C2\SC(=Nc3cccnc3)NC2=O)cc(OC)c1OC,8.51
12,COc1ccccc1CNC(=S)NC1CCCC1,7.26
13,COc1cccc(NC(=O)CSc2nnc(-c3cccnc3)o2)c1,1.95
14,Cc1ccc(C)c(-c2nnc(NC(=O)CCS(=O)(=O)c3ccc(F)cc3)o2)c1,-12.4
15,CCCC1(C(=O)O)NC(c2ccccc2O)C2C(=O)N(c3cccc(Cl)c3)C(=O)C21 (centres unmarked),6.52
16,COc1cccc(C2c3c(oc4ccc(F)cc4c3=O)C(=O)N2CCN2CCOCC2)c1OC (centres unmarked),4.45
17,Cc1ccsc1C(=O)N[C@@H](C)c1nnc2ccccn12,4.09
18,Cc1ccccc1/C=N/NC(=O)Cn1nnc(N)n1,-7.01
19,CCS(=O)(=O)c1nnnn1-c1ccccc1S(C)(=O)=O,12.3
20,COc1cccc(C2CC(=O)Nc3cc4c(cc32)CCC4)c1 (centres unmarked),-6.57
